# Measurements taken from the supplement of paper PMC8728848.
# This is one part of the list.
# B1: Mg3lysM (Mycosphaerella graminicola) (protein)
# chain: APQNPPTSCSAAPQPTGTGSPGTVCGSTTFTNYTVKAGDTLGAIAKQYNSGVCDIAKVNGIDNPDYIKPDQVLSIPANCVTPDNTSCVKPVPVITNTCVLGVGSTYTVKSGDSFSAIATSFNITLASLEARNPQIPNYDLIFPGQVINTPLCPNSVCDSIGTYVIESGDIFYNLAQSNNVTVGQLESLNVNVNVTDIHPGDIIILPHNCHNITASA
# Experiments:
# Test in all cases: glycan array binding signal (z-score within array); higher = stronger binding
# Details in all cases: glycan notation: IUPAC condensed, linker removed
# [1] = biological target: Gal(b1-3)GalNAc(b1-3)Gal(a1-4)Gal(b1-4)Glc
# Summary of the method: (§1)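 The binding signal is a Z-score computed within each array and averaged over linkers. Arrays of the same protein sequence at different concentrations or buffers were also averaged together. Data originate from 3228 arrays in the Consortium for Functional Glycomics database, kept only where the protein sequence was available.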
# [2] = biological target: Gal(b1-3)GalNAc(b1-4)Gal(b1-4)Glc
# Summary of the method: as §1
# [3] = biological target: Gal(b1-3)GalNAc(b1-4)[Neu5Ac(a2-3)]Gal(b1-4)Glc
# Summary of the method: as §1
# Gal(b1-3)GlcNAc = biological target: Gal(b1-3)GlcNAc
# Summary of the method: as §1
# [4] = biological target: Gal(b1-3)GlcNAc(a1-3)Gal(b1-4)GlcNAc
# Summary of the method: as §1
# [5] = biological target: Gal(b1-3)GlcNAc(a1-6)Gal(b1-4)GlcNAc
# Summary of the method: as §1
# Gal(b1-3)GlcNAc(b1-2)Man = biological target: Gal(b1-3)GlcNAc(b1-2)Man
# Summary of the method: as §1
# [6] = biological target: Gal(b1-3)GlcNAc(b1-2)Man(a1-3)[Gal(b1-3)GlcNAc(b1-2)Man(a1-6)]Man(b1-4)GlcNAc(b1-4)GlcNAc
# Summary of the method: as §1
# [7] = biological target: Gal(b1-3)GlcNAc(b1-2)Man(a1-3)[Gal(b1-3)GlcNAc(b1-2)Man(a1-6)]Man(b1-4)GlcNAc(b1-4)[Fuc(a1-6)]GlcNAc
# Summary of the method: as §1
# [8] = biological target: Gal(b1-3)GlcNAc(b1-2)Man(a1-3)[GlcNAc(b1-4)][Gal(b1-3)GlcNAc(b1-2)Man(a1-6)]Man(b1-4)GlcNAc(b1-4)GlcNAc
# Summary of the method: as §1
# [9] = biological target: Gal(b1-3)GlcNAc(b1-2)[Gal(b1-3)GlcNAc(b1-6)]Man(a1-6)[Gal(b1-3)GlcNAc(b1-2)Man(a1-3)]Man(b1-4)GlcNAc(b1-4)GlcNAc
# Summary of the method: as §1
# [10] = biological target: Gal(b1-3)GlcNAc(b1-3)Gal(b1-3)GlcNAc
# Summary of the method: as §1
# [11] = biological target: Gal(b1-3)GlcNAc(b1-3)Gal(b1-4)Glc
# Summary of the method: as §1
# [12] = biological target: Gal(b1-3)GlcNAc(b1-3)Gal(b1-4)GlcNAc
# Summary of the method: as §1
# [13] = biological target: Gal(b1-3)GlcNAc(b1-3)Gal(b1-4)GlcNAc(b1-2)Man(a1-3)[Gal(b1-3)GlcNAc(b1-3)Gal(b1-4)GlcNAc(b1-2)Man(a1-6)]Man(b1-4)GlcNAc(b1-4)GlcNAc
# Summary of the method: as §1
# [14] = biological target: Gal(b1-3)GlcNAc(b1-3)Gal(b1-4)GlcNAc(b1-2)[Gal(b1-3)GlcNAc(b1-3)Gal(b1-4)GlcNAc(b1-6)]Man(a1-6)[Gal(b1-3)GlcNAc(b1-3)Gal(b1-4)GlcNAc(b1-2)Man(a1-3)]Man(b1-4)GlcNAc(b1-4)[Fuc(a1-6)]GlcNAc
# Summary of the method: as §1
# [15] = biological target: Gal(b1-3)GlcNAc(b1-3)Gal(b1-4)GlcNAc(b1-3)Gal(b1-4)GlcNAc(b1-2)[Gal(b1-3)GlcNAc(b1-3)Gal(b1-4)GlcNAc(b1-3)Gal(b1-4)GlcNAc(b1-6)]Man(a1-6)[Gal(b1-3)GlcNAc(b1-3)Gal(b1-4)GlcNAc(b1-3)Gal(b1-4)GlcNAc(b1-2)Man(a1-3)]Man(b1-4)GlcNAc(b1-4)[Fuc(a1-6)]GlcNAc
# Summary of the method: as §1
# [16] = biological target: Gal(b1-3)GlcNAc(b1-3)Gal(b1-4)GlcNAc(b1-6)[Gal(b1-3)GlcNAc(b1-3)]Gal(b1-4)Glc
# Summary of the method: as §1
# [17] = biological target: Gal(b1-3)GlcNAc(b1-3)Gal(b1-4)[Fuc(a1-3)]GlcNAc
# Summary of the method: as §1
# [18] = biological target: Gal(b1-3)GlcNAc(b1-3)Gal(b1-4)[Fuc(a1-3)]GlcNAc(b1-6)[Gal(b1-3)GlcNAc(b1-3)]Gal(b1-4)Glc
# Summary of the method: as §1
# [19] = biological target: Gal(b1-3)GlcNAc(b1-3)GalNAc
# Summary of the method: as §1
# [20] = biological target: Gal(b1-3)GlcNAc(b1-6)Gal(b1-4)GlcNAc
# Summary of the method: as §1
# [21] = biological target: Gal(b1-3)GlcNAc(b1-6)GalNAc
# Summary of the method: as §1
binder,measurement,setting,value
B1,glycan array binding signal (z-score),[1],-0.131
same,glycan array binding signal (z-score),[2],0.049
same,glycan array binding signal (z-score),[3],-0.021
same,glycan array binding signal (z-score),Gal(b1-3)GlcNAc,-0.012
same,glycan array binding signal (z-score),[4],0.006
same,glycan array binding signal (z-score),[5],-0.12
same,glycan array binding signal (z-score),Gal(b1-3)GlcNAc(b1-2)Man,-0.123
same,glycan array binding signal (z-score),[6],-0.045
same,glycan array binding signal (z-score),[7],-0.097
same,glycan array binding signal (z-score),[8],-0.136
same,glycan array binding signal (z-score),[9],-0.059
same,glycan array binding signal (z-score),[10],-0.101
same,glycan array binding signal (z-score),[11],-0.065
same,glycan array binding signal (z-score),[12],-0.056
same,glycan array binding signal (z-score),[13],-0.11
same,glycan array binding signal (z-score),[14],0.063
same,glycan array binding signal (z-score),[15],0.15
same,glycan array binding signal (z-score),[16],-0.125
same,glycan array binding signal (z-score),[17],-0.157
same,glycan array binding signal (z-score),[18],0.02
same,glycan array binding signal (z-score),[19],-0.112
same,glycan array binding signal (z-score),[20],-0.046
same,glycan array binding signal (z-score),[21],-0.099
